Consider 153 variants from a collection of fitness landscapes (doi:10.1126/science.1257360).

Sequences and labels used below:
B1: PhoQ; a variant is named by its letters at X, in order, P23837 (parent)
chain: MKKLLRLFFPLSLRVRFLLATAAVVLVLSLAYGMVALIGYSVSFDKTTFRLLRGESNLFYTLAKWENNKLHVELPENIDKQSPTMTLIYDENGQLLWAQRDVPWLMKMIQPDWLKSNGFHEIEADVNDTSLLLSGDHSIQQQLQEVREDDDDAEMTHSVAVNVYPATSRMPKLTIVVVDTIPVELKSSYMVWSWFIYVLSANLLLVIPLLWVAAWWSLRPIEALAKEVRELEEHNRELLNPATTRELTSLVRNLNRLLKSERERYDKYRTTLTDLTHSLKTPLXXLQXXLRSLRSEKMSVSDAEPVMLEQISRISQQIGYYLHRASMRGGTLLSRELHPVAPLLDNLTSALNKVYQRKGVNISLDISPEISFVGEQNDFVEVMGNVLDNACKYCLEFVEISARQTDEHLYIVVEDDGPGIPLSKREVIFDRGQRVDTLRPGQGVGLAVAREITEQYEGKIVAGESMLGGARMEVIFGRQHSAPKDE

The list shows a part of the results.

The variants in this assay derive from B1. The experiment in a line: enrichment ratio after two sorts for PhoP signalling (ratio (wild type AVST 3.29)); higher = more functional. As to conditions: with PhoP (E. coli).
As for LNTE, the enrichment ratio is no more than 0.25. In the case of SGAS, the enrichment ratio is 7.47. With KKHY, the enrichment ratio is no more than 0.25. The result for KNLK reads no more than 0.25; that for VVYL, no more than 0.25; that for AQRE, no more than 0.25. With GSPI, the enrichment ratio is no more than 0.25. In the case of WCFY, the enrichment ratio is no more than 0.25. For SVCF, the enrichment ratio turned out to be 4.45. The result for VVAC reads no more than 0.25; that for WRAD, no more than 0.25. With AKGG, the enrichment ratio is no more than 0.25. In the case of QRMG, the enrichment ratio was no more than 0.25.

For the variant TYEA, the enrichment ratio is no more than 0.25.

In the case of MVNG, the enrichment ratio was no more than 0.25. Take KYSK: the enrichment ratio is no more than 0.25. Consider LWMW, for which the enrichment ratio is no more than 0.25. Regarding GFPH, the enrichment ratio is no more than 0.25. Regarding GRCI, the enrichment ratio was no more than 0.25.

Take LPCV: the enrichment ratio was no more than 0.25. Take FTVH: the enrichment ratio was no more than 0.25. GFRQ: the enrichment ratio is no more than 0.25.

As for IAFG, the enrichment ratio was no more than 0.25.

Turning to AMFR, the enrichment ratio is no more than 0.25.

As for VIAT, the enrichment ratio was no more than 0.25. As to FWDY, the enrichment ratio is no more than 0.25. Turning to RKCI, the enrichment ratio is no more than 0.25. The result for MMGD reads no more than 0.25; that for WQYV, no more than 0.25. Consider MYYF, for which the enrichment ratio is no more than 0.25. Take ALNR: the enrichment ratio was no more than 0.25. As for PCHS, the enrichment ratio was no more than 0.25. For the variant AKMS, the enrichment ratio is 3.84.

As for NDQY, the enrichment ratio was no more than 0.25. Consider FELL, for which the enrichment ratio stood at 5.65. For the variant QADQ, the enrichment ratio was 6.93. For the variant RRDA, the enrichment ratio is no more than 0.25. Regarding MRTH, the enrichment ratio was no more than 0.25.

In the case of SHRI, the enrichment ratio was no more than 0.25. Turning to TNST, the enrichment ratio was determined as 12.6.

Turning to GWKN, the enrichment ratio is no more than 0.25. The result for TLMS reads 1.83. For the variant SISC, the enrichment ratio amounted to 8.77.

With FLVC, the enrichment ratio is no more than 0.25. Regarding TTSE, the enrichment ratio stood at 5.44. As for KPLD, the enrichment ratio is no more than 0.25. Regarding NGQP, the enrichment ratio was no more than 0.25.

As to LDHA, the enrichment ratio is no more than 0.25. For the variant DHEN, the enrichment ratio is no more than 0.25.

Consider KNNS, for which the enrichment ratio is no more than 0.25. Consider TFTY, for which the enrichment ratio is no more than 0.25. As for RMWN, the enrichment ratio is no more than 0.25. For the variant ARTC, the enrichment ratio was no more than 0.25. Take FEIC: the enrichment ratio amounted to 9.92. Turning to GGCN, the enrichment ratio was 0.54. The result for TCDH reads 0.414. In the case of KEGW, the enrichment ratio was no more than 0.25. Take KFQV: the enrichment ratio was no more than 0.25. In the case of PVNY, the enrichment ratio was no more than 0.25. With NRMW, the enrichment ratio is no more than 0.25. Turning to RVWL, the enrichment ratio was no more than 0.25. TWWE: the enrichment ratio is no more than 0.25. On to HMAK, for which the enrichment ratio was no more than 0.25. Regarding FLRR, the enrichment ratio is no more than 0.25. The figure for SMAN is 6.01; for HLFS it is no more than 0.25; for DRML it is no more than 0.25. QTDL: the enrichment ratio turned out to be 9.92. The result for TDYF reads 0.575. The figure for NNGS is no more than 0.25; for QPTM it is no more than 0.25; for PGST it is no more than 0.25. As to MFST, the enrichment ratio is no more than 0.25. FVYL: the enrichment ratio is no more than 0.25. On to CELD, for which the enrichment ratio was no more than 0.25.

Consider FPPL, for which the enrichment ratio is no more than 0.25. With NAVA, the enrichment ratio was no more than 0.25. The figure for SWSH is no more than 0.25; for SNSN it is 12.5. The figure for HHNK is no more than 0.25. For the variant MELM, the enrichment ratio was determined as 17.7. For the variant EQPD, the enrichment ratio was no more than 0.25. With TWIN, the enrichment ratio was no more than 0.25. For WPVI, the enrichment ratio is no more than 0.25. For SWNQ, the enrichment ratio is no more than 0.25. As for VSHY, the enrichment ratio is no more than 0.25. KHND: the enrichment ratio is no more than 0.25. For the variant KSFK, the enrichment ratio was no more than 0.25. With VILC, the enrichment ratio was 0.339. In the case of WLID, the enrichment ratio was no more than 0.25. Consider HFTP, for which the enrichment ratio is no more than 0.25.

EIAG: the enrichment ratio was no more than 0.25. Take SQPT: the enrichment ratio is no more than 0.25. QGCL: the enrichment ratio was determined as 1.15.

For QRRM, the enrichment ratio was no more than 0.25. In the case of INKP, the enrichment ratio is no more than 0.25. Consider QRDY, for which the enrichment ratio was no more than 0.25. Regarding IRAH, the enrichment ratio is no more than 0.25. On to YFDG, for which the enrichment ratio is no more than 0.25.

KQPQ: the enrichment ratio is no more than 0.25. For the variant FMYA, the enrichment ratio was no more than 0.25. SWVS: the enrichment ratio is no more than 0.25. The figure for QHTT is no more than 0.25; for YQGT it is no more than 0.25.

NPKY: the enrichment ratio was no more than 0.25. For PWAP, the enrichment ratio was no more than 0.25. For the variant IPWG, the enrichment ratio is no more than 0.25.

With AMSK, the enrichment ratio came out at 9.12. In the case of PSMK, the enrichment ratio was no more than 0.25. The result for VKNQ reads no more than 0.25. Take TTIY: the enrichment ratio was no more than 0.25.

Turning to LLSC, the enrichment ratio is no more than 0.25. For the variant KFNQ, the enrichment ratio is no more than 0.25.

Consider QKGY, for which the enrichment ratio is no more than 0.25. The figure for IFFH is no more than 0.25; for INMF it is no more than 0.25; for SSQV it is 11.1. The figure for MRAI is no more than 0.25; for DTYH it is no more than 0.25; for TNNT it is no more than 0.25. Consider PTDI, for which the enrichment ratio was no more than 0.25. Take LRTM: the enrichment ratio was no more than 0.25. For the variant FLFA, the enrichment ratio was found to be 0.339. FGVT: the enrichment ratio is no more than 0.25.

Consider DPMD, for which the enrichment ratio was no more than 0.25. As to SPFH, the enrichment ratio is no more than 0.25.

Turning to IAGW, the enrichment ratio is no more than 0.25. LHVT: the enrichment ratio is no more than 0.25. Turning to GDCQ, the enrichment ratio was no more than 0.25. As for LCAA, the enrichment ratio is no more than 0.25. The result for MWVV reads no more than 0.25; that for QCMI, no more than 0.25. With PHRN, the enrichment ratio was no more than 0.25. Turning to GWMH, the enrichment ratio was no more than 0.25. The figure for ANCM is 6.06; for HRFR it is no more than 0.25; for DITL it is no more than 0.25.

TSYF: the enrichment ratio is 6.56. Regarding QPMI, the enrichment ratio was no more than 0.25. As to QSMQ, the enrichment ratio was no more than 0.25. Take MLFT: the enrichment ratio was no more than 0.25. On to HKVW, for which the enrichment ratio is no more than 0.25. The figure for NQQF is no more than 0.25; for FRYS it is no more than 0.25; for FARA it is no more than 0.25. Turning to FIFN, the enrichment ratio is no more than 0.25.

Regarding GGSA, the enrichment ratio is 4.05. The figure for YMGT is no more than 0.25. As to PDCW, the enrichment ratio was no more than 0.25. As for IFYL, the enrichment ratio was no more than 0.25.

Turning to SLYA, the enrichment ratio is no more than 0.25.

Regarding WTWQ, the enrichment ratio is no more than 0.25. Take AIMW: the enrichment ratio is no more than 0.25.
